# Measured values: the supplement of paper PMC8728848
# The list shows a part of the results.
# What was measured:
# Assay in all cases: glycan array binding signal (z-score within array); higher = stronger binding
# Details in all cases: glycan notation: IUPAC condensed, linker removed
# [1] = biological target: GlcNAc(b1-3)Gal(b1-3)GalNAc
# Method in brief: (§1)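 Arrays were curated from the Consortium for Functional Glycomics database, 3228 in total, and kept only where the protein sequence was available. Binding is expressed as a within-array Z-score. This score was averaged across arrays of the same protein sequence at different concentrations or buffers and across linkers, and negative values can be read as non-binding.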
# GlcNAc(b1-3)Gal(b1-4)Glc = biological target: GlcNAc(b1-3)Gal(b1-4)Glc
# Method in brief: as §1
# [2] = biological target: GlcNAc(b1-3)Gal(b1-4)GlcNAc
# Method in brief: as §1
# [3] = biological target: GlcNAc(b1-3)Gal(b1-4)GlcNAc(b1-2)Man(a1-3)[GlcNAc(b1-3)Gal(b1-4)GlcNAc(b1-2)Man(a1-6)]Man(b1-4)GlcNAc(b1-4)GlcNAc
# Method in brief: as §1
# [4] = biological target: GlcNAc(b1-3)Gal(b1-4)GlcNAc(b1-2)Man(a1-3)[GlcNAc(b1-3)Gal(b1-4)GlcNAc(b1-2)Man(a1-6)]Man(b1-4)GlcNAc(b1-4)[Fuc(a1-6)]GlcNAc
# Method in brief: as §1
# [5] = biological target: GlcNAc(b1-3)Gal(b1-4)GlcNAc(b1-2)[GlcNAc(b1-3)Gal(b1-4)GlcNAc(b1-6)]Man(a1-6)[GlcNAc(b1-3)Gal(b1-4)GlcNAc(b1-2)Man(a1-3)]Man(b1-4)GlcNAc(b1-4)GlcNAc
# Method in brief: as §1
# [6] = biological target: GlcNAc(b1-3)Gal(b1-4)GlcNAc(b1-3)Gal(b1-4)GlcNAc
# Method in brief: as §1
# [7] = biological target: GlcNAc(b1-3)Gal(b1-4)GlcNAc(b1-3)Gal(b1-4)GlcNAc(b1-2)Man(a1-3)[GlcNAc(b1-3)Gal(b1-4)GlcNAc(b1-3)Gal(b1-4)GlcNAc(b1-2)Man(a1-6)]Man(b1-4)GlcNAc(b1-4)GlcNAc
# Method in brief: as §1
# [8] = biological target: GlcNAc(b1-3)Gal(b1-4)GlcNAc(b1-3)Gal(b1-4)GlcNAc(b1-2)Man(a1-3)[GlcNAc(b1-3)Gal(b1-4)GlcNAc(b1-3)Gal(b1-4)GlcNAc(b1-2)Man(a1-6)]Man(b1-4)GlcNAc(b1-4)[Fuc(a1-6)]GlcNAc
# Method in brief: as §1
# [9] = biological target: GlcNAc(b1-3)Gal(b1-4)GlcNAc(b1-3)Gal(b1-4)GlcNAc(b1-2)[GlcNAc(b1-3)Gal(b1-4)GlcNAc(b1-3)Gal(b1-4)GlcNAc(b1-6)]Man(a1-6)[GlcNAc(b1-3)Gal(b1-4)GlcNAc(b1-3)Gal(b1-4)GlcNAc(b1-2)Man(a1-3)]Man(b1-4)GlcNAc(b1-4)[Fuc(a1-6)]GlcNAc
# Method in brief: as §1
# [10] = biological target: GlcNAc(b1-3)Gal(b1-4)GlcNAc(b1-3)Gal(b1-4)GlcNAc(b1-3)Gal(b1-4)GlcNAc(b1-2)Man(a1-3)[GlcNAc(b1-3)Gal(b1-4)GlcNAc(b1-3)Gal(b1-4)GlcNAc(b1-3)Gal(b1-4)GlcNAc(b1-2)Man(a1-6)]Man(b1-4)GlcNAc(b1-4)GlcNAc
# Method in brief: as §1
# [11] = biological target: GlcNAc(b1-3)Gal(b1-4)GlcNAc(b1-3)Gal(b1-4)GlcNAc(b1-3)Gal(b1-4)GlcNAc(b1-2)Man(a1-3)[GlcNAc(b1-3)Gal(b1-4)GlcNAc(b1-3)Gal(b1-4)GlcNAc(b1-3)Gal(b1-4)GlcNAc(b1-2)Man(a1-6)]Man(b1-4)GlcNAc(b1-4)[Fuc(a1-6)]GlcNAc
# Method in brief: as §1
# [12] = biological target: GlcNAc(b1-3)Gal(b1-4)GlcNAc(b1-3)Gal(b1-4)GlcNAc(b1-3)Gal(b1-4)GlcNAc(b1-2)[GlcNAc(b1-3)Gal(b1-4)GlcNAc(b1-3)Gal(b1-4)GlcNAc(b1-3)Gal(b1-4)GlcNAc(b1-6)]Man(a1-6)[GlcNAc(b1-3)Gal(b1-4)GlcNAc(b1-3)Gal(b1-4)GlcNAc(b1-3)Gal(b1-4)GlcNAc(b1-2)Man(a1-3)]Man(b1-4)GlcNAc(b1-4)[Fuc(a1-6)]GlcNAc
# Method in brief: as §1
# [13] = biological target: GlcNAc(b1-3)Gal(b1-4)GlcNAc(b1-3)Gal(b1-4)GlcNAc(b1-3)Gal(b1-4)GlcNAc(b1-3)Gal(b1-4)GlcNAc(b1-2)Man(a1-3)[GlcNAc(b1-3)Gal(b1-4)GlcNAc(b1-3)Gal(b1-4)GlcNAc(b1-3)Gal(b1-4)GlcNAc(b1-3)Gal(b1-4)GlcNAc(b1-2)Man(a1-6)]Man(b1-4)GlcNAc(b1-4)GlcNAc
# Method in brief: as §1
# [14] = biological target: GlcNAc(b1-3)Gal(b1-4)GlcNAc(b1-3)Gal(b1-4)GlcNAc(b1-3)Gal(b1-4)GlcNAc(b1-3)Gal(b1-4)GlcNAc(b1-2)Man(a1-3)[GlcNAc(b1-3)Gal(b1-4)GlcNAc(b1-3)Gal(b1-4)GlcNAc(b1-3)Gal(b1-4)GlcNAc(b1-3)Gal(b1-4)GlcNAc(b1-2)Man(a1-6)]Man(b1-4)GlcNAc(b1-4)[Fuc(a1-6)]GlcNAc
# Method in brief: as §1
# [15] = biological target: GlcNAc(b1-3)Gal(b1-4)GlcNAc(b1-3)Gal(b1-4)GlcNAc(b1-3)Gal(b1-4)GlcNAc(b1-3)Gal(b1-4)GlcNAc(b1-2)[GlcNAc(b1-3)Gal(b1-4)GlcNAc(b1-3)Gal(b1-4)GlcNAc(b1-3)Gal(b1-4)GlcNAc(b1-3)Gal(b1-4)GlcNAc(b1-6)]Man(a1-6)[GlcNAc(b1-3)Gal(b1-4)GlcNAc(b1-3)Gal(b1-4)GlcNAc(b1-3)Gal(b1-4)GlcNAc(b1-3)Gal(b1-4)GlcNAc(b1-2)Man(a1-3)]Man(b1-4)GlcNAc(b1-4)[Fuc(a1-6)]GlcNAc
# Method in brief: as §1
# [16] = biological target: GlcNAc(b1-3)Gal(b1-4)GlcNAc(b1-3)Gal(b1-4)GlcNAc(b1-3)GalNAc
# Method in brief: as §1
# [17] = biological target: GlcNAc(b1-3)Gal(b1-4)GlcNAc(b1-3)GalNAc
# Method in brief: as §1
# [18] = biological target: GlcNAc(b1-3)Gal(b1-4)GlcNAc(b1-3)[GlcNAc(b1-3)Gal(b1-4)GlcNAc(b1-3)]GalNAc
# Method in brief: as §1
# [19] = biological target: GlcNAc(b1-3)Gal(b1-4)GlcNAc(b1-6)[Gal(b1-3)]GalNAc
# Method in brief: as §1
# [20] = biological target: GlcNAc(b1-3)Gal(b1-4)GlcNAc(b1-6)[GlcNAc(b1-3)Gal(b1-3)]GalNAc
# Method in brief: as §1
# [21] = biological target: GlcNAc(b1-3)Gal(b1-4)GlcNAc(b1-6)[GlcNAc(b1-3)]Gal(b1-4)GlcNAc
# Method in brief: as §1
# GlcNAc(b1-3)GalNAc = biological target: GlcNAc(b1-3)GalNAc
# Method in brief: as §1
# GlcNAc(b1-3)Man = biological target: GlcNAc(b1-3)Man
# Method in brief: as §1
# [22] = biological target: GlcNAc(b1-3)[GlcNAc(b1-4)][GlcNAc(b1-6)]GlcNAc
# Method in brief: as §1
# [23] = biological target: GlcNAc(b1-3)[GlcNAc(b1-6)]Gal(b1-4)GlcNAc
# Method in brief: as §1
# [24] = biological target: GlcNAc(b1-3)[GlcNAc(b1-6)]GalNAc
# Method in brief: as §1
# [25] = biological target: GlcNAc(b1-4)Gal(b1-4)GlcNAc
# Method in brief: as §1
# GlcNAc(b1-4)GlcNAc = biological target: GlcNAc(b1-4)GlcNAc
# Method in brief: as §1
# [26] = biological target: GlcNAc(b1-4)GlcNAc(b1-4)GlcNAc
# Method in brief: as §1
# [27] = biological target: GlcNAc(b1-4)GlcNAc(b1-4)GlcNAc(b1-4)GlcNAc(b1-4)GlcNAc
# Method in brief: as §1
# [28] = biological target: GlcNAc(b1-4)GlcNAc(b1-4)GlcNAc(b1-4)GlcNAc(b1-4)GlcNAc(b1-4)GlcNAc
# Method in brief: as §1
# [29] = biological target: GlcNAc(b1-4)[GlcNAc(b1-6)]GalNAc
# Method in brief: as §1
# [30] = biological target: GlcNAc(b1-6)Gal(b1-4)GlcNAc
# Method in brief: as §1
# GlcNAc(b1-6)GalNAc = biological target: GlcNAc(b1-6)GalNAc
# Method in brief: as §1
# [31] = biological target: GlcNAc6S(b1-3)Gal(b1-4)GlcNAc
# Method in brief: as §1
# Kdn(a2-3)Gal(b1-3)GalNAc = biological target: Kdn(a2-3)Gal(b1-3)GalNAc
# Method in brief: as §1
binder,measurement,setting,value
"PVL (Psathyrella velutina), Q309D1_9AGAR (protein) MSVVVISQALPVPTRIPGVADLVGFGNGGVYIIRNSLLIQVVKVINNFGYDAGGWRVEKHVRLLADTTGDNQPDVVGFGENGVWISTNNGNNTFVDPPKMVLANFAYAAGGWRVEKHIRFMADLRKTGRADIVGFGDGGIYISRNNGGGQFAPAQLALNNFGYAQGWRLDRHLRFLADVTGDGLLDVVGFGENQVYIARNSGNGTFQPAQAVVNNFCIGAGGWTISAHPRVVADLTGDRKADILGFGVAGVYTSLNNGNGTFGAVNLVLKDFGVNSGWRVEKHVRCVSSLTNKKVGDIIGFGDAGVYVALNNGNGTFGPVKRVIDNFGYNQGWRVDKHPRFVVDLTGDGCADIVGFGENSVWACMNKGDGTFGPIMKLIDDMTVSKGWTLQKTVRYAANLYL",glycan array binding signal (z-score),[1],1.48
same,glycan array binding signal (z-score),GlcNAc(b1-3)Gal(b1-4)Glc,4.07
same,glycan array binding signal (z-score),[2],3.63
same,glycan array binding signal (z-score),[3],3.5
same,glycan array binding signal (z-score),[4],3.27
same,glycan array binding signal (z-score),[5],3.69
same,glycan array binding signal (z-score),[6],4.46
same,glycan array binding signal (z-score),[7],3.34
same,glycan array binding signal (z-score),[8],4.03
same,glycan array binding signal (z-score),[9],4.69
same,glycan array binding signal (z-score),[10],4.58
same,glycan array binding signal (z-score),[11],4.34
same,glycan array binding signal (z-score),[12],5.13
same,glycan array binding signal (z-score),[13],4.45
same,glycan array binding signal (z-score),[14],4.27
same,glycan array binding signal (z-score),[15],5.12
same,glycan array binding signal (z-score),[16],2.88
same,glycan array binding signal (z-score),[17],1.51
same,glycan array binding signal (z-score),[18],2.73
same,glycan array binding signal (z-score),[19],2.05
same,glycan array binding signal (z-score),[20],2.71
same,glycan array binding signal (z-score),[21],3.83
same,glycan array binding signal (z-score),GlcNAc(b1-3)GalNAc,1.05
same,glycan array binding signal (z-score),GlcNAc(b1-3)Man,0.277
same,glycan array binding signal (z-score),[22],0.097
same,glycan array binding signal (z-score),[23],2.91
same,glycan array binding signal (z-score),[24],1.1
same,glycan array binding signal (z-score),[25],-0.133
same,glycan array binding signal (z-score),GlcNAc(b1-4)GlcNAc,0.43
same,glycan array binding signal (z-score),[26],0.777
same,glycan array binding signal (z-score),[27],0.647
same,glycan array binding signal (z-score),[28],0.53
same,glycan array binding signal (z-score),[29],0.637
same,glycan array binding signal (z-score),[30],0.714
same,glycan array binding signal (z-score),GlcNAc(b1-6)GalNAc,0.215
same,glycan array binding signal (z-score),[31],-0.338
same,glycan array binding signal (z-score),Kdn(a2-3)Gal(b1-3)GalNAc,-0.353
